Laboratory results: PubChem BioAssay AID1645887 (National Center for Advancing Translational Sciences (NCATS), 2021)
Several values for one entry are separate records, joined by “and”; a condition that tells them apart may be missing. Identical values can stand only once. The whole screen tested about 16,000 compounds, of which about 40 (0.2%) were called active. About 1% were inconclusive and are not listed. Calls follow the shape of the dose curve; as a rule, active = well fitted activation curve with a large enough effect; inconclusive = small, poorly fitted or top-dose-only effect, or another doubt; inactive = no such curve, though single readings can be large or run the other way. The list shows a part of the results.

The compounds below were run against Rap guanine nucleotide exchange factor 4 (Homo sapiens) (UniProt Q8WZA2) (assay: Validation qHTS for agonist of cAMP-regulated guanine nucleotide exchange factor 4 (EPAC2)). Details: EPAC2 Rap1B BODIPY-GDP exchange, fluorescence; activation: stronger effect = higher value.
Method in brief: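 Fluorescent exchange assay: 100 nM EPAC2 with 250 nM RAP1B-BODIPY-GDP and 50 uM GDP; compound added, 5 min at room temperature, then read (ex 480/em 540 nm) every 5 min for 30 min. Normalized to 6.5 mM cAMP agonist control.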
% is scaled to controls: 0 for no effect and ±100 for the full control effect.
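Also: exchange makes BODIPY-GDP fluorescence drop when released from Rap1B; series mostly up to about 150 µM.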

Sequence of UniProt Q8WZA2 (Q8WZA2 whole entry, looked up): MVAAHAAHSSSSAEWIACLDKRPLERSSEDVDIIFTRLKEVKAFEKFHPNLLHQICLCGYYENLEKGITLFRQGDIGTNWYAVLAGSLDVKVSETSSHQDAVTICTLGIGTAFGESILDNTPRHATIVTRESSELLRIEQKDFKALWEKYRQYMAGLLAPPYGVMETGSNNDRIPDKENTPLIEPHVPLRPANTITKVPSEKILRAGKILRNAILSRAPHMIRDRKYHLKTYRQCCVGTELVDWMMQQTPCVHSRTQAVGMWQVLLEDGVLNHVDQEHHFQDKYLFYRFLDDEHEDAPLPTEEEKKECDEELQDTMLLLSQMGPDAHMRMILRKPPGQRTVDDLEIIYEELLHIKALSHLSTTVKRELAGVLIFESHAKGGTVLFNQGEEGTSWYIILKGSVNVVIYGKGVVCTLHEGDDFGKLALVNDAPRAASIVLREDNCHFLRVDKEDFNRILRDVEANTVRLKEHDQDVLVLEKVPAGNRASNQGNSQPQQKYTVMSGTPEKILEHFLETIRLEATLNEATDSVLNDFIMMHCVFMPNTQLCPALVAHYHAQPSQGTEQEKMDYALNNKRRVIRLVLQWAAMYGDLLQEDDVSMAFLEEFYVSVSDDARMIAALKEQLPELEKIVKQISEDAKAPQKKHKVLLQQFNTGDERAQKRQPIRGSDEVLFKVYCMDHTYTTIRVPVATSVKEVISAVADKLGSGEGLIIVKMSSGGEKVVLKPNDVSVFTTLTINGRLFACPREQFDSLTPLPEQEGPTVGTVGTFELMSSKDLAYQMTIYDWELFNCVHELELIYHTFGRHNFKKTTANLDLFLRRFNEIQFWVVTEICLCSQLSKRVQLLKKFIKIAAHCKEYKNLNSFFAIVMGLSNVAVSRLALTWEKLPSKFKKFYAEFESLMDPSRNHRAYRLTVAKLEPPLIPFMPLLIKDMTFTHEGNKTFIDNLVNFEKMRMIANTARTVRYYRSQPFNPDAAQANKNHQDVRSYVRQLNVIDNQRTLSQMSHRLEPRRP

activation, inactive:
CC(C)c1nc(N(C)S(C)(=O)=O)nc(-c2ccc(F)cc2)c1/C=C/C(O)CC(O)CC(=O)O (centres undefined) -23%, COCCn1c(=O)c(-c2ccccc2)nc2cnc(N(C)C)nc21 -10.1%, CCOC(=O)c1cnc2c(cnn2CC)c1NN=C(C)C -5.98% and 2.68% and -65.4%, COc1ccc(-n2c(=O)c(-c3cc(F)cc(F)c3)nc3cnc(N4CCNCC4)nc32)cc1 -11.3%, C[C@@H]1C[C@H]2[C@@H]3CCC4=CC(=O)C=C[C@]4(C)[C@@]3(Cl)[C@@H](O)C[C@]2(C)[C@@]1(OC(=O)c1ccco1)C(=O)CCl -7.91%, CN1CCCN(C(c2ccccc2)c2ccc(Cl)cc2)CC1 (centres undefined) -12.1%, CCOC(=O)[C@H](CCc1ccccc1)N[C@@H](C)C(=O)N1C(=O)N(C)C[C@H]1C(=O)O 7.08%, O=C(O)c1cc2cc(Cc3cccnc3)ccc2o1 4.38% and -20%, CCCCNC(=O)[C@@H]1CC=C[C@@H]2CCN(CCCC)C(=O)[C@@H]21 0.476%, COCCNC(=O)COc1ccc(OCCNC[C@@H](O)COc2ccccc2)cc1 -8.03%, CCC1COCCS(=O)(=O)N1Cc1ccccc1F (centres undefined) -2.86%, CC(=O)NCCNc1nc(-c2ccccc2C)nc2ccccc12 -11.4%, COCC(=O)Nc1cc(C(=O)N2CC3(C)CC2CC(C)(C)C3)c2c(c1)nc(-c1ccncc1)n2C (centres undefined) -3.54%, CC(C)(C)c1ccc(C(=O)C[n+]2cccc(Br)c2)cc1 -17.8%, Cc1ccc2c(c1)CN(CCNC(=O)c1cccc(Cn3cccn3)c1)CC(C)O2 (centres undefined) 0.542%, O=C(c1cnccn1)N1CCC[C@@]2(CCN(c3cccc(-c4ccccc4)c3)C2)C1 7.39%, COCCn1c(=O)c(-c2ccccc2)nc2cnc(OC)nc21 -6.49%, Cn1nc(C(=O)NCCN2Cc3ccccc3OC(c3ccsc3)C2)c2ccccc2c1=O (centres undefined) -22.2%, OC1(c2cccnc2)CCN(Cc2ccc3c(c2)CN(Cc2cccc(C(F)(F)F)c2)CCO3)CC1 0.187%, O=C1[C@H](Cc2ccccc2)NCCCC[C@H](c2ccc(Cl)cc2)N1Cc1ccc(Cl)cc1 -8.99%, O=C(Nc1ccc(Cl)cc1Cl)[C@@H]1CC=C[C@@H]2CCN(C3CC3)C(=O)[C@@H]21 -11.6%, O=C(c1cccc(F)c1F)N1CCOc2ccc(CN3CCC(Oc4cccnc4)CC3)cc2C1 1.29%, O=C(c1cccc(F)c1)N1CCC2(CC1)CN(c1ccccc1)C2 4.44%, COCC(=O)N1CCC2(CC1)CN(c1ccccc1)C2 0.597%, C=C1c2cccc(O)c2C(O)=C2C(=O)[C@]3(O)C(O)=C(C(N)=O)C(=O)[C@@H](N(C)C)[C@@H]3[C@@H](O)[C@H]12 -19%, N#C/C(=C\c1ccc(O)c(O)c1)C(=O)NCCCc1ccccc1 -4.79% and -22.4%, Cc1ncoc1C(=O)N1CCOc2ccc(CN3CCC(Oc4cccnc4)CC3)cc2C1 5.67%, CCCCCCCCCCCCCCCC(=O)O -24.9%, C/C(=C\C(=O)OCCCCCCCCC(=O)O)C[C@@H]1OC[C@H](C[C@@H]2O[C@H]2[C@@H](C)[C@H](C)O)[C@@H](O)[C@H]1O -40.2%, COc1cc(=O)n2c(c1C(=O)NCc1ccco1)CCN(Cc1ccc3nsnc3c1)CC2 -6.46%, O=S(=O)(c1ccccc1)N1CCC[C@@]2(CCN(c3ccncc3)C2)C1 -15.5%, CC1O[C@@H](O[C@H]2C(Oc3cc(O)c4c(=O)cc(-c5ccc(O)cc5)oc4c3)OC(CO)C(O)C2O)C(O)C(O)C1O (some centres undefined) -12.8%, COc1ncc2nc(C)c(=O)n(C)c2n1 -14.9%, CNc1ncnc2ccc(-c3ccccc3C)cc12 -13.7%, C=C[C@](C)(O)CCC1C(=C)CCC2[C@@](C)(CO)CCC[C@@]12C (some centres undefined) -4.04%, CN(CC(=O)O)c1ccc(/C=C2\C=Cc3ccccc32)cc1 -34.3% and -20.3%, CC(=O)OC[C@@]1(O)C[C@]23CCC4c5ccoc5CC[C@@]4(C)C2CCC1C3 (some centres undefined) -0.679%, N#Cc1cccc(-c2nc3cnc(Oc4cccc(Cl)c4)nc3n(C3CC3)c2=O)c1 -1.67%, Cc1nc(NCc2c(C)nn(C)c2Cl)sc1-c1ccn(CC2COc3ccccc3O2)n1 (centres undefined) -3.69%, CCOc1ccc(C(=O)OCCN(CC)CC)cc1 7.23%, CC1CCN=C(N)S1 (centres undefined) -12.7%, COC(=O)N1CCC[C@@]2(CCN(C(c3ccccc3)c3ccccc3)C2)C1 1.4%, COCC(=O)N1CCC[C@@]2(CCN(c3ccccc3)C2)C1 -1.76%, CCc1cccc(CC)c1NC(=O)CN(CC(=O)O)CC(=O)O 6.97%, C[N+]1(C)[C@@H]2CC(OC(=O)C(O)(c3cccs3)c3cccs3)C[C@H]1[C@@H]1O[C@@H]12 (some centres undefined) -4.41%, O=c1cc(-c2ccc(O)c(O)c2)oc2ccccc12 -8.93%, O=C(O)c1cc(N(Cc2ccccc2O)Cc2cc(O)ccc2O)ccc1O -7.63%, CC1(C)CC2C1CC[C@]1(C)CCC3C(C(=O)O)CC(=O)O[C@]32C1 (some centres undefined) -41.4%, COc1ccccc1CCn1c(=O)c(C)nc2cncnc21 -8.32%, COc1ccc(-n2c(=O)c(-c3ccc(F)cc3)nc3cncnc32)cc1 0.968%, CC(=O)C[C@H]1c2ccccc2S(=O)(=O)N1c1ccccc1 -31.8%, C[C@]12CCC(=O)C=C1[C@@H]1C[C@@H]1[C@H]1[C@@H]3[C@@H]4C[C@@H]4[C@@]4(CCC(=O)O4)[C@@]3(C)CC[C@@H]12 -16.5%, N#Cc1cccc(-c2cc(NCc3ccccc3)ncn2)c1 -18.3%, C=C(C)[C@H]1CC=C(C)C(=O)C1 -9.52%, Cc1noc(C)c1-c1ccc2ncnc(NC3CCNCC3)c2c1 -11.5%, COc1ccc(C(=O)N2CCC3(CCN(Cc4nccs4)CC3)CC2)cc1 -25%, COc1ccc2cc([C@H](C)C(=O)O)ccc2c1 -10.7% and -16.8%, NC(=O)[C@@H]1CCCN1C(=O)CC1(c2cccc(F)c2)CC(=O)N(C2CCCC2)C1=O (some centres undefined) -7.13%, O=C(O)/C=C1\CCCc2ccccc2C1O (centres undefined) 7.94%, COc1cc(OC)cc(C(=O)N2CCCC(n3cc(C(=O)NCC(C)C)nn3)C2)c1 (centres undefined) 3.88%, O=C(O)[C@H]1CCCNC1 -19.5%, CS(=O)(=O)Nc1c(O)ccc2c1CCCC2C1=NCCN1 (centres undefined) -8.01%, COCCNc1ncnc2ccc(-c3ccoc3)cc12 -5.98%, CCC1(C2CCN(C(=O)c3ccccc3C)CC2)NC(=O)N(CCc2scnc2C)C1=O (centres undefined) -8.35%, NC(CS)C(=O)O (centres undefined) -11.2%, O=C(c1csnn1)N1CCC[C@@]2(CCN(c3cccc(-c4ccccc4)c3)C2)C1 -10.8%, C[C@]12CCC(=O)C=C1CC[C@@H]1[C@H]2[C@@H](O)C[C@@]2(C)[C@H]1CC[C@]2(O)C(=O)CO 16.3%, CO[C@H]1[C@H](NC(=O)c2ccsc2)c2ccccc2C12CCN(Cc1ccc3c(c1)OCO3)CC2 7.62%, CN1CCN(CCC=C2c3ccccc3Sc3ccc(S(=O)(=O)N(C)C)cc32)CC1 19.4% and -23%, CC(=O)NCCNc1nc(-c2cccc(C#N)c2)nc2ccccc12 1.32%, CCOC(=O)C[C@H]1c2ccccc2S(=O)(=O)N1C1CC1 -16%, CC1=C(/C=C/C(C)=C/C=C/C(C)=C\CO)C(C)(C)CCC1 -4.5%, Cc1cc[n+](CCC2CCCCC2)c2ccccc12 -27.5%, O=C(NC1CCCC1)c1cn(C2CCCN(Cc3ccc4c(c3)OCCO4)C2)nn1 (centres undefined) -1.47%, O=c1c2ccccc2oc2ccc(Oc3ccccc3)cc12 -2.6%, CC(C)C[C@H](NC(=O)N1CCCCCC1)C(=O)N[C@H](Cc1cn(C)c2ccccc12)C(=O)N[C@H](Cc1ccccn1)C(=O)O -10.3%, NC(=Nc1ccccc1)NC(=O)c1nc(Cl)c(N)nc1N -15% and -5.94% and -15.1%, Clc1ccc(-n2cccc2CN2CCc3nnc(Cc4ccccc4)n3CC2)nc1 5.14%, O=C(O)c1ccccc1OP(=O)(O)O -6.18%, O=S(=O)(c1ccccc1)N1CCC2(CC1)CN(c1ncccn1)C2 2.23%, OC1(c2ccc(Cl)cc2)CCN(Cc2c[nH]c3ccccc23)CC1 6.86% and 0.638% and -14.5%, COC(=O)c1c(C)cc(OC(=O)c2c(C)cc(O)c(C=O)c2O)c(C)c1O -18.3%, C/C=C(/C(=C/C)c1ccc(O)cc1)c1ccc(O)cc1 -5.1% and 9.06%, COc1ccccc1CN1CC2(CCN(S(=O)(=O)c3ccccc3)CC2)C1 -6.34%
